# In all, about 81,000 sequences were measured (“one-hybrid fitness for binding NBS DNA”: median about -0.1, highest 2% from about 0.36 on). The list shows a part of the results.
# B1: Caulobacter ParB omega fusion; a variant is named by its letters at X, in order, B8GW30 (parent)
# chain: MESVVVGEPGMSEGRRGLGRGLSALLGEVDAAPAQAPGEQLGGSREAPIEILQRNPDQPRRTFREEDLEDLSNSIREKGVLQPILVRPSPDTAGEYQIVAGERAWRAAQRAGLKTVPIMVRELDDLAVLEIGIIENVQRADLNVLEEALSYKVLMEKFERTQENIAQTIGKSXSHVANXMRLLXLPDEVQSYLVSGELTAXHARAIAAAADPVALAKQIIEGGLSVRETEALARKAPNLSAGKSKGGRPPRVKDTDTQALESDLSSVLGLDVSIDHRGSTGTLTITYATLEQLDDLCNRLTRGI
# Variants of: B1
# Experiment: one-hybrid fitness for binding NBS DNA (the Noc-binding site; scaled: cognate 1, non-cognate 0); higher = stronger binding
# Conditions: with NBS DNA site
# In short: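 Pre- and post-selection plasmids were Illumina-sequenced, three replicate libraries were pooled, and any variant with under 10 reads was removed. The libraries were Caulobacter ParB with four specificity codons randomised, selected in E. coli USO through a HIS3 reporter whose site is 19 bp from the promoter. Cells grew 48 hours at 37°C on M9 without histidine, with 0.1 mM IPTG and 5 mM 3-AT. Fitness is the log change in variant-to-wild-type read ratio, rescaled against cognate and non-cognate.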
row,Variant,one-hybrid fitness for binding NBS DNA
1,KDML,≤ 0.2
2,RCHL,≤ 0.2
3,ASIR,≤ 0.2
4,PCDA,≤ 0.2
5,SHNS,≤ 0.2
6,QINH,≤ 0.2
7,FHQR,≤ 0.2
8,PPSV,≤ 0.2
9,AIHT,≤ 0.2
10,EAHM,≤ 0.2
11,RWDV,≤ 0.2
12,LYNT,≤ 0.2
13,SCVS,≤ 0.2
14,IDMR,≤ 0.2
15,KKTQ,≤ 0.2
16,GSRT,≤ 0.2
17,SRYY,≤ 0.2
18,HTMW,≤ 0.2
19,DHNT,≤ 0.2
20,QIFI,≤ 0.2
21,SLTC,≤ 0.2
22,RTSQ,≤ 0.2
23,VKKY,≤ 0.2
24,HNKA,≤ 0.2

row,Variant,one-hybrid fitness for binding NBS DNA
1,LLHT,≤ 0.2
2,RRET,0.698
3,AQRM,≤ 0.2
4,THPF,≤ 0.2
5,APEV,≤ 0.2
6,WTSY,≤ 0.2
7,FMNL,≤ 0.2
8,DQSK,≤ 0.2
9,GKWN,≤ 0.2
10,HVYY,≤ 0.2
11,DQKI,≤ 0.2
12,IRAG,≤ 0.2
13,SRRA,≤ 0.2
14,NQHT,≤ 0.2
15,IGLE,≤ 0.2
16,RIWP,≤ 0.2
17,LWRD,≤ 0.2
18,HCWC,≤ 0.2
19,SQLE,≤ 0.2
20,GNAV,≤ 0.2
21,FKRV,≤ 0.2
22,KMKG,≤ 0.2
23,ARSH,≤ 0.2
24,QRVS,0.561

row,Variant,one-hybrid fitness for binding NBS DNA
1,RRDW,≤ 0.2
2,SPHV,≤ 0.2
3,GLSG,≤ 0.2
4,TESC,≤ 0.2
5,NKYS,≤ 0.2
6,DGLT,≤ 0.2
7,CACV,≤ 0.2
8,PMEA,≤ 0.2
9,QKVS,0.32
10,GARS,≤ 0.2
11,WALY,≤ 0.2
12,RYVT,0.229
13,RCKC,0.37
14,MMAD,≤ 0.2
15,VLNN,≤ 0.2
16,RERF,≤ 0.2
17,MVTK,≤ 0.2
18,PCPH,≤ 0.2
19,PSPQ,≤ 0.2
20,KETW,≤ 0.2
21,VDVP,≤ 0.2
22,LEIW,≤ 0.2
23,GLPT,≤ 0.2
24,PRKE,≤ 0.2

row,Variant,one-hybrid fitness for binding NBS DNA
1,RGAV,≤ 0.2
2,AIRA,≤ 0.2
3,MCLR,≤ 0.2
4,RRKS,0.68
5,NTLT,≤ 0.2
6,CKKF,≤ 0.2
7,GYTG,≤ 0.2
8,RHHL,≤ 0.2
9,HTVT,≤ 0.2
10,CCWG,≤ 0.2
11,AYMW,≤ 0.2
12,NDPC,≤ 0.2
13,TRFC,≤ 0.2
14,LGDY,≤ 0.2
15,TRIM,≤ 0.2
16,WNTI,≤ 0.2
17,KHPF,≤ 0.2
18,KQPG,≤ 0.2
19,QQYE,≤ 0.2
20,QCKN,0.445
21,DMYR,≤ 0.2
22,QTPQ,≤ 0.2
23,AYPV,≤ 0.2
24,MPPC,≤ 0.2

row,Variant,one-hybrid fitness for binding NBS DNA
1,LNAD,≤ 0.2
2,YFSE,≤ 0.2
3,LAPV,≤ 0.2
4,LKDS,≤ 0.2
5,VWIR,≤ 0.2
6,PIYF,≤ 0.2
7,ACGS,≤ 0.2
8,YRKL,≤ 0.2
9,QRVN,0.259
10,VPVY,≤ 0.2
11,FSTT,≤ 0.2
12,PYHL,≤ 0.2
13,RIAH,≤ 0.2
14,CCQG,≤ 0.2
15,GPAC,≤ 0.2
16,MTKN,≤ 0.2
17,VNPC,≤ 0.2
18,PTCQ,≤ 0.2
19,LAFI,≤ 0.2
20,KMNQ,≤ 0.2
21,SPDD,≤ 0.2
22,GVDS,≤ 0.2
23,NDVR,≤ 0.2
24,PWPW,≤ 0.2

row,Variant,one-hybrid fitness for binding NBS DNA
1,ATGS,≤ 0.2
2,WDSN,≤ 0.2
3,QPFV,≤ 0.2
4,QGMY,≤ 0.2
5,QVIR,0.242
6,IMNS,≤ 0.2
7,VRFR,≤ 0.2
8,SAHC,≤ 0.2
9,VTSD,≤ 0.2
10,HVVG,≤ 0.2
11,PLFV,≤ 0.2
12,LRHT,≤ 0.2
13,TPEW,≤ 0.2
14,GGSN,≤ 0.2
15,AREG,≤ 0.2
16,SFPE,≤ 0.2
17,TAMD,≤ 0.2
18,QHIV,≤ 0.2
19,TDGL,≤ 0.2
20,AGLI,≤ 0.2
21,WRGT,≤ 0.2
22,PVTW,≤ 0.2
23,RPQG,≤ 0.2
24,GLCC,≤ 0.2

row,Variant,one-hybrid fitness for binding NBS DNA
1,RHAQ,≤ 0.2
2,IRRK,≤ 0.2
3,WMTR,≤ 0.2
4,WVHI,≤ 0.2
5,CAST,≤ 0.2
6,VGQW,≤ 0.2
7,ELNG,≤ 0.2
8,KKYS,≤ 0.2
9,HEHA,≤ 0.2
10,QKRY,0.518
11,EHWR,≤ 0.2
12,GYNG,≤ 0.2
13,SPVS,≤ 0.2
14,KPQW,≤ 0.2
15,LVHH,≤ 0.2
16,ASKN,≤ 0.2
17,LLIF,≤ 0.2
18,GGFS,≤ 0.2
19,TADP,≤ 0.2
20,LGTM,≤ 0.2
21,TWSC,≤ 0.2
22,CYYA,≤ 0.2
23,NPSL,≤ 0.2
24,EARD,≤ 0.2

row,Variant,one-hybrid fitness for binding NBS DNA
1,SECR,≤ 0.2
2,FFRR,≤ 0.2
3,DFTE,≤ 0.2
4,RKNL,≤ 0.2
5,YKVT,≤ 0.2
6,QWVV,≤ 0.2
7,HKTC,≤ 0.2
8,LRKM,≤ 0.2
9,RDTW,≤ 0.2
10,VFTL,≤ 0.2
11,WVQS,≤ 0.2
12,FKIG,≤ 0.2
13,PALF,≤ 0.2
14,MKTT,≤ 0.2
15,PQEM,≤ 0.2
16,RNPL,≤ 0.2
17,RMQS,0.409
18,RWRC,≤ 0.2
19,VAYE,≤ 0.2
20,TPHA,≤ 0.2
21,QSWP,≤ 0.2
22,DFKL,≤ 0.2
23,APAE,≤ 0.2
24,SEQT,≤ 0.2

row,Variant,one-hybrid fitness for binding NBS DNA
1,VLKV,≤ 0.2
2,QLLN,≤ 0.2
3,EYVR,≤ 0.2
4,MEYR,≤ 0.2
5,YKQS,≤ 0.2
6,TLDS,≤ 0.2
7,WTRH,≤ 0.2
8,TRLE,≤ 0.2
9,QCMR,0.589
10,VLNG,≤ 0.2
11,IAMP,≤ 0.2
12,KHPK,≤ 0.2
13,RCNT,0.589
14,AKKM,≤ 0.2
15,QGIS,≤ 0.2
16,YYHG,≤ 0.2
17,RFNV,≤ 0.2
18,TGHC,≤ 0.2
19,RHVP,≤ 0.2
20,RPTS,≤ 0.2
21,QTVV,≤ 0.2
22,QCME,≤ 0.2
23,IYYR,≤ 0.2
24,PPIW,≤ 0.2

row,Variant,one-hybrid fitness for binding NBS DNA
1,ALQF,≤ 0.2
2,KMSG,≤ 0.2
3,AMGG,≤ 0.2
4,SDAV,≤ 0.2
5,FPTV,≤ 0.2
6,YIQL,≤ 0.2
7,SLSP,≤ 0.2
8,CIAS,≤ 0.2
9,GLAN,≤ 0.2
10,ALDV,≤ 0.2
11,RIDK,≤ 0.2
12,PLAP,≤ 0.2
13,LTTT,≤ 0.2
14,DLIY,≤ 0.2
15,CVGG,≤ 0.2
16,MGFT,≤ 0.2
17,PDGG,≤ 0.2
18,LDML,≤ 0.2
19,AHDT,≤ 0.2
20,TEGI,≤ 0.2
21,ATFR,≤ 0.2
22,EMLC,≤ 0.2
23,RHHC,≤ 0.2
24,SIWT,≤ 0.2

row,Variant,one-hybrid fitness for binding NBS DNA
1,LSIT,≤ 0.2
2,VCTC,≤ 0.2
3,PPWR,≤ 0.2
4,AMSC,≤ 0.2
5,LNSN,≤ 0.2
6,ICMR,≤ 0.2
7,QTRG,0.496
8,PMWV,≤ 0.2
9,CSIM,≤ 0.2
10,FASL,≤ 0.2
11,YQVF,≤ 0.2
12,NQWC,≤ 0.2
13,VTGS,≤ 0.2
14,SRMT,≤ 0.2
15,SHVS,≤ 0.2
16,PRRL,≤ 0.2
17,YENK,≤ 0.2
18,TPCV,≤ 0.2
19,KGHR,≤ 0.2
20,PHTM,≤ 0.2
21,PCGT,≤ 0.2
22,KQRQ,≤ 0.2
23,CEDV,≤ 0.2
24,RAKP,≤ 0.2

row,Variant,one-hybrid fitness for binding NBS DNA
1,CMNS,≤ 0.2
2,NNHL,≤ 0.2
3,QMPG,≤ 0.2
4,SIDR,≤ 0.2
5,EMSS,≤ 0.2
6,LDNA,≤ 0.2
7,NRVG,≤ 0.2
8,TIDT,≤ 0.2
9,HMPF,≤ 0.2
10,MAST,≤ 0.2
11,WPYP,≤ 0.2
12,KIPR,≤ 0.2
13,HVKI,≤ 0.2
14,TFMD,≤ 0.2
15,VTHG,≤ 0.2
16,WRQN,0.247
17,RIRM,≤ 0.2
18,VNPS,≤ 0.2
19,GRLC,≤ 0.2
20,HCWV,≤ 0.2
21,RPFA,≤ 0.2
22,NLYR,≤ 0.2
23,SSKQ,≤ 0.2
24,QKPL,≤ 0.2

row,Variant,one-hybrid fitness for binding NBS DNA
1,SWYD,≤ 0.2
2,QKPI,≤ 0.2
3,QQSI,≤ 0.2
4,SSTK,≤ 0.2
5,RDKC,≤ 0.2
6,MAWK,≤ 0.2
7,RIVV,≤ 0.2
8,AKSN,≤ 0.2
9,ENIR,≤ 0.2
10,YQEG,≤ 0.2
11,NYFE,≤ 0.2
12,GYTV,≤ 0.2
13,TSVN,≤ 0.2
14,DVAA,≤ 0.2
15,REPS,≤ 0.2
16,DQND,≤ 0.2
17,VHFW,≤ 0.2
18,QEQV,≤ 0.2
